Data taken from article PMC4336329 (PLoS ONE, 2015).
Hit rate of the full screen: of about 310,000 compounds, about 2,200 (0.71%) showed an effect of 50% or more. Effects have a minus sign here. Some of the results follow.

Each compound was assayed against human ether-à-go-go-related gene (hERG) potassium channel (human, UniProt Q12809) (assay: primary screen, population patch clamp on CHO cells stably expressing hERG).
human ether-à-go-go-related gene (hERG) potassium channel, sequence (Q12809 whole entry, looked up): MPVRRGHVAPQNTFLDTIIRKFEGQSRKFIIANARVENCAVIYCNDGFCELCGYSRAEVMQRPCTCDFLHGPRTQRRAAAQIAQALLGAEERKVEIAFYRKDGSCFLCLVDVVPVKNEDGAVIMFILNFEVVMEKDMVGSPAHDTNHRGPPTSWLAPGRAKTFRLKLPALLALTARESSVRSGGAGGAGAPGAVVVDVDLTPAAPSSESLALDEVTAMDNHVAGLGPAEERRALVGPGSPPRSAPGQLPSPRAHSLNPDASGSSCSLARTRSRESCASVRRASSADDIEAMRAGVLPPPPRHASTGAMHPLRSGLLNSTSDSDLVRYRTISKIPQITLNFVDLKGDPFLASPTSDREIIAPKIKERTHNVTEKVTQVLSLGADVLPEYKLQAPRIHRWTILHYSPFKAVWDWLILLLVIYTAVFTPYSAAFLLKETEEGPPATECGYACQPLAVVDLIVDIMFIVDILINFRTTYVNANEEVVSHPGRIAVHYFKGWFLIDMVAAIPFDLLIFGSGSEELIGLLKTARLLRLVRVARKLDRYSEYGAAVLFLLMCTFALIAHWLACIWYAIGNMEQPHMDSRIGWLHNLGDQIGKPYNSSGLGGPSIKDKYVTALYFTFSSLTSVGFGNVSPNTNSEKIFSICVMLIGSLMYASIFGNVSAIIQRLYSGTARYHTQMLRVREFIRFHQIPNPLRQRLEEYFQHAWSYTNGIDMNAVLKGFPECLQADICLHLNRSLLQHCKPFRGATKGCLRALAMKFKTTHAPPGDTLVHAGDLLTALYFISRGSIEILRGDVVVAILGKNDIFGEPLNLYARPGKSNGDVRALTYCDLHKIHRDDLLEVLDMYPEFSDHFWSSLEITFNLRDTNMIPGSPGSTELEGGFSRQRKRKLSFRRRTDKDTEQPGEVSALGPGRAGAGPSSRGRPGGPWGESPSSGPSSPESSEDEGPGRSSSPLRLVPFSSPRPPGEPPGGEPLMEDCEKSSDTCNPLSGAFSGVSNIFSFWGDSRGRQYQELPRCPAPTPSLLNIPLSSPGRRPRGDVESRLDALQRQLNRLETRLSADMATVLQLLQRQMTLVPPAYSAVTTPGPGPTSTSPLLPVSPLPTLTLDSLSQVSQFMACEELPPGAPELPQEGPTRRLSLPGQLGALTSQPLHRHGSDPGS

Compared with `Cc1nn(C)c(C)c1/C=C1/SC(=S)NC1=O`, `CCOC(=O)C1CCCn2c1nc1sc3c(c1c2=O)CCCC3` (stereo not drawn) is lower in “hERG current change (%, negative = inhibition) at 1uM” value: 14.9% for the first, 0.766% for the second.

First: COc1ccc(C(=O)CN2C(=O)c3ccccc3S2(=O)=O)cc1Br
Second: COc1ccccc1Cn1c(=S)[nH]c2cc(C(=O)NCC(OC)OC)ccc2c1=O
The “hERG current change (%, negative = inhibition) at 1uM” value of the first is lower: 12.5% for the first, 17.4% for the second.

First: CCCCC1=CC2=C(c3ccco3)C(=O)C(C)(OC(=O)c3ccc(OC)cc3)C(=O)C2=CN1CCc1ccccn1 (stereo not drawn)
Second: CC(C)Oc1ccc(/C(O)=C2/C(=O)C(=O)N(Cc3cccnc3)C2c2ccco2)cc1 (stereo not drawn)
The “hERG current change (%, negative = inhibition) at 1uM” value of the first is lower: 12.1% for the first, 14.2% for the second.

Compared with `CC1(C)CC(NC(=O)C2CCN(S(=O)(=O)c3cccc(C(F)(F)F)c3)CC2)CC(C)(C)N1`, `O=C1CC(C(=O)N2CCc3ccccc32)CN1c1cccc(C(F)(F)F)c1` (stereo not drawn) is higher in “hERG current change (%, negative = inhibition) at 1uM” value: 4.93% for the first, 10.7% for the second.

First: CCN(CC)CCOC(=O)c1ccc(N)cc1.Cl
Second: CN(C)C(=O)COC(=O)c1ccc(S(=O)(=O)NCc2ccco2)cc1
The “hERG current change (%, negative = inhibition) at 1uM” value of the first is lower: 12.2% for the first, 15.3% for the second.

Compared with `CCOCCCNC(=O)CCNS(=O)(=O)c1ccc(C)cc1`, `CCC1(C)CC(CCNS(=O)(=O)c2ccc(C)cc2)(c2ccc(C)cc2)CCO1` (stereo not drawn) is lower in “hERG current change (%, negative = inhibition) at 1uM” value: 11.3% for the first, 11.1% for the second.

Going from `COc1cc(N=c2ssnc2Cl)c(OC)cc1Cl` to `COc1ccc(CNC(N)=O)cc1OC`, the “hERG current change (%, negative = inhibition) at 1uM” value falls from 12.6% to -1.05%.

First: C=CCc1ccc(OCCCOc2ccc(C(=O)O)cc2)c(OC)c1
Second: COc1cccc(C(=O)Nc2ccccc2-c2ccccc2)c1
The “hERG current change (%, negative = inhibition) at 1uM” value of the first is higher: 8.51% for the first, -1.34% for the second.

Going from `CCOC(=O)c1oc2ccccc2c1CSc1nnnn1-c1ccc(OC)cc1` to `Cc1cc(NC(=O)COC(=O)c2oc3c(ccc4ccccc43)c2C)no1`, the “hERG current change (%, negative = inhibition) at 1uM” value rises from 7.3% to 11.8%.

Going from `O=C1c2[nH]nc(-c3ccccc3O)c2C(c2ccc(F)cc2)N1Cc1ccco1` (stereo not drawn) to `O=C(NCc1ccccc1)C(c1ccco1)N(C(=O)c1ccccn1)c1ccc(F)cc1` (stereo not drawn), the “hERG current change (%, negative = inhibition) at 1uM” value falls from 13.1% to 12%.

Compared with `CCCCC(=O)Nc1ccc(N2CCN(c3ccc(F)cc3)CC2)cc1`, `O=C(c1ccc2nsnc2c1)N1CCN(c2ccc([N+](=O)[O-])cc2)CC1` is lower in “hERG current change (%, negative = inhibition) at 1uM” value: 2.95% for the first, -57.4% for the second.

Compared with `Cn1c(CNc2ccc(O)cc2)nc2ccccc21`, `Cn1c(-c2ccc(N)cc2)nc2ccccc21` is higher in “hERG current change (%, negative = inhibition) at 1uM” value: 4.66% for the first, 5.46% for the second.

Compared with `CN(c1ccc(OCC(=O)Nc2nc3ccccc3s2)cc1)S(=O)(=O)c1ccccc1`, `COc1ccc(N(CC(=O)N/N=C/c2cccnc2)S(=O)(=O)c2ccccc2)c(OC)c1` is lower in “hERG current change (%, negative = inhibition) at 1uM” value: 18.2% for the first, 8% for the second.

Going from `CCC(C)NCC(=O)Nc1ccc([N+](=O)[O-])cc1C(=O)Nc1ccccc1F` (stereo not drawn) to `CCC(C)NCC(=O)Nc1cc(S(=O)(=O)N(CC)c2ccccc2)ccc1Cl` (stereo not drawn), the “hERG current change (%, negative = inhibition) at 1uM” value falls from 6.92% to -18.4%.

First: CN(c1ccc(C(=O)Nc2ccccc2C(F)(F)F)cc1)S(C)(=O)=O
Second: Cc1ccc(S(=O)(=O)N(C)C)cc1NC(=O)c1n[nH]c(=O)c2ccccc12
The “hERG current change (%, negative = inhibition) at 1uM” value of the first is lower: 8.09% for the first, 14% for the second.

First: COc1cccc(C(=O)Oc2ccc3c(C)cc(=O)oc3c2C(C)=O)c1
Second: CCCC(C(=O)Nc1ccc2c(C)cc(=O)oc2c1)c1ccccc1 (stereo not drawn)
The “hERG current change (%, negative = inhibition) at 1uM” value of the first is lower: 8.21% for the first, 12.4% for the second.

First: O=C(CSc1oc(-c2ccc(F)cc2)nc1S(=O)(=O)c1ccccc1)NCC1CCCO1 (stereo not drawn)
Second: O=C(NCC1CCCO1)c1ccc(NC(=O)c2cccc([N+](=O)[O-])c2)cc1 (stereo not drawn)
The “hERG current change (%, negative = inhibition) at 1uM” value of the first is lower: 2.06% for the first, 10.1% for the second.

Going from `CC(C)C1=NN(C(=O)c2ccccc2)C(O)(C(C)(C)C)C1` (stereo not drawn) to `CC(C)N1CCN(Cc2nc(-c3ccccc3)cs2)CC1CCO` (stereo not drawn), the “hERG current change (%, negative = inhibition) at 1uM” value falls from 10.4% to -5.89%.

Going from `O=C(Cc1ccccc1)NCC1COc2ccccc2O1` (stereo not drawn) to `COc1cccc(C(=O)N2CCN(C(=O)C3COc4ccccc4O3)CC2)c1` (stereo not drawn), the “hERG current change (%, negative = inhibition) at 1uM” value rises from 9.09% to 18.6%.

Going from `CNC(=O)c1cc(S(=O)(=O)Nc2ccc(C)cc2C)ccc1C` to `Cc1cc(C)c(S(=O)(=O)Nc2ccccc2C(=O)N2CCOCC2)c(C)c1`, the “hERG current change (%, negative = inhibition) at 1uM” value falls from 14.9% to -8.24%.

First: CC(C)Nc1nc(Cl)nc(NC2CCCCC2)n1
Second: CC(C)c1onc(C(=O)N2CCCCC2C)c1[N+](=O)[O-] (stereo not drawn)
The “hERG current change (%, negative = inhibition) at 1uM” value of the first is higher: 15.1% for the first, 8.23% for the second.

First: Clc1ccc(-c2nnc(-c3ccccc3)nc2N2CCSCC2)cc1
Second: Cn1c(SCc2ccc(C#N)cc2)nnc1-c1ccccc1
The “hERG current change (%, negative = inhibition) at 1uM” value of the first is higher: 10.4% for the first, 7.75% for the second.

Compared with `O=C(COC(=O)Cc1ccccc1F)Nc1ccccc1[N+](=O)[O-]`, `Cc1ccc2cc(/C=N/NC(=O)c3ccccc3[N+](=O)[O-])c(Cl)nc2c1` is higher in “hERG current change (%, negative = inhibition) at 1uM” value: -0.101% for the first, 7.51% for the second.

Going from `Cc1ccoc1C(=O)Nc1cccc(Oc2ccccc2)c1` to `CC(=O)Nc1ccc(S(=O)(=O)Nc2cccc(C(=O)Nc3ccccc3C(=O)O)c2)cc1`, the “hERG current change (%, negative = inhibition) at 1uM” value rises from 9.45% to 10.5%.

Compared with `O=C(NC(=S)Nc1ccc(Cc2ccncc2)cc1)c1ccccc1F`, `CCC(NC(=O)c1ccccc1NC(=O)c1ccco1)C(=O)NNC(=O)c1ccncc1` (stereo not drawn) is higher in “hERG current change (%, negative = inhibition) at 1uM” value: 1.48% for the first, 10.2% for the second.

Going from `Cc1ccc(-c2nc(CSc3nc4ccccc4c(=O)n3CCO)cs2)cc1` to `Cc1ccc2nc(SCC(=O)NCc3cccs3)c(C#N)cc2c1`, the “hERG current change (%, negative = inhibition) at 1uM” value falls from 21.4% to -0.375%.

First: CC12CN3CC(C)(CN(C1)P3(=O)Oc1ccccc1)C2=O (stereo not drawn)
Second: O=C(O)C(=O)O.c1ccc(OCCN2CCN(C(c3ccccc3)c3ccccc3)CC2)cc1
The “hERG current change (%, negative = inhibition) at 1uM” value of the first is lower: 9.38% for the first, 13.5% for the second.

Going from `CCOC(=O)n1c(=O)n(Cc2ccc(Cl)c(Cl)c2)c2ccccc21` to `COc1ccccc1CC(=O)Nc1cc(C)ccn1`, the “hERG current change (%, negative = inhibition) at 1uM” value rises from 9.25% to 11.8%.

Going from `CN(CCc1ccccn1)C(=O)CC1C(=O)NCCN1Cc1cccc(F)c1` (stereo not drawn) to `CCOc1ccc(NC(=O)CSC2=NCCN2)cc1.Cl`, the “hERG current change (%, negative = inhibition) at 1uM” value falls from 10.9% to 3.32%.

First: CCn1c(SCC(=O)Nc2ccc3c(c2)OCO3)nc2c1c(=O)n(C)c(=O)n2C
Second: COc1ccc(CNC(=O)CCSc2nc(-c3ccc4c(c3)OCO4)cc(C(F)(F)F)n2)cc1
The “hERG current change (%, negative = inhibition) at 1uM” value of the first is lower: 1.51% for the first, 9.84% for the second.

Compared with `O=C(O)C1CCCN(S(=O)(=O)c2ccc(-c3ccc(=O)[nH]n3)s2)C1` (stereo not drawn), `CCC(CC)c1nnc(NC(=O)c2ccc(S(=O)(=O)N3CCc4ccccc4C3)cc2)s1` is lower in “hERG current change (%, negative = inhibition) at 1uM” value: 17% for the first, 14.5% for the second.

First: Cc1cc(-c2nc3ncccc3o2)ccc1N
Second: COc1cc(NC(=O)c2c(-c3ccccc3Cl)noc2C)c2ncccc2c1
The “hERG current change (%, negative = inhibition) at 1uM” value of the first is lower: 3.4% for the first, 18.4% for the second.

Going from `CCN(CC)c1ccc2cc(/C(N)=N/NC(=O)c3cccs3)c(=O)oc2c1` to `CCc1nc2oc3ccc(C)cc3c(=O)c2cc1C(=O)OC`, the “hERG current change (%, negative = inhibition) at 1uM” value rises from -2.78% to 8.62%.

Going from `COc1ccc(C2NC(=S)NC3=C2N2CCC3CC2)cc1` (stereo not drawn) to `Cc1ccc2c(c1)C1CN(C)CCC1N2C(=S)NC(=O)c1ccc(Cl)cc1Cl` (stereo not drawn), the “hERG current change (%, negative = inhibition) at 1uM” value falls from 10.7% to -33.6%.

Compared with `c1ccc(-c2onc3cc4c(cc23)OCCO4)cc1`, `COc1ccc(C)cc1S(=O)(=O)NCC(c1ccc2c(c1)OCO2)N1CCN(C)CC1` (stereo not drawn) is lower in “hERG current change (%, negative = inhibition) at 1uM” value: 8.58% for the first, -54.9% for the second.

Compared with `C=C(Cl)COc1ccc2c(CCC)cc(=O)oc2c1`, `CC(OC(=O)CCc1nc2ccccc2c(=O)[nH]1)C(=O)Nc1ncc(Cl)cc1Cl` (stereo not drawn) is higher in “hERG current change (%, negative = inhibition) at 1uM” value: 1.04% for the first, 10.2% for the second.

First: CCCC(=O)Nc1ccc2c(c1)nc1n2CCOC1
Second: CCOc1ccc(NC(=O)CN(C)C(=O)c2cc(S(=O)(=O)N3CCCCCC3)ccc2OC)cc1OCC
The “hERG current change (%, negative = inhibition) at 1uM” value of the first is higher: 14.1% for the first, 10.4% for the second.

Going from `NS(=O)(=O)c1ccc(N=Nc2ccc(O)c3ncccc23)cc1` to `COc1ccc(/C=N\NS(=O)(=O)c2ccc(Cl)cc2)cc1COc1ccccc1[N+](=O)[O-]`, the “hERG current change (%, negative = inhibition) at 1uM” value falls from 17.6% to -5.26%.

First: COC(=O)C(NC(=O)c1ccco1)(Nc1cc(C)ccn1)C(F)(F)F (stereo not drawn)
Second: COc1cccc(CN(C)S(=O)(=O)c2cccs2)c1
The “hERG current change (%, negative = inhibition) at 1uM” value of the first is lower: 13.6% for the first, 18.1% for the second.

Going from `O=C(NC1CCCN(CCc2ccccc2)C1)C1CCCC1` (stereo not drawn) to `O=P(OCC1CC1)(c1ccccc1)c1ccccc1`, the “hERG current change (%, negative = inhibition) at 1uM” value rises from 3.14% to 11.5%.

Going from `COc1ccc(CN2CCN(C(=O)Cn3ncn4cccc4c3=O)CC2)c(OC)c1OC` to `CCCC(O)(c1ccc(OC)cc1)C(CN(C)C)c1ccccc1` (stereo not drawn), the “hERG current change (%, negative = inhibition) at 1uM” value rises from 5.28% to 11%.

First: Cc1cc(C)nc(/N=C(\N)Nc2ccc(C)c([N+](=O)[O-])c2)n1
Second: O=C1NCCCC1C(=O)N/N=C/c1cccc([N+](=O)[O-])c1 (stereo not drawn)
The “hERG current change (%, negative = inhibition) at 1uM” value of the first is higher: 12.9% for the first, -6.98% for the second.

First: CCOc1cc(C2NC(=O)NC(C)=C2C(=O)OC(C)CC)cc(Br)c1O (stereo not drawn)
Second: O=C(O)CC(SCC(=O)Nc1ccc(Br)cc1)C(=O)O (stereo not drawn)
The “hERG current change (%, negative = inhibition) at 1uM” value of the first is lower: 10.2% for the first, 17.1% for the second.

`Cl.O=[N+]([O-])c1cccc(C2NCC(c3ccccc3Cl)c3c2[nH]c2ccccc32)c1` (stereo not drawn) was tested, and the “hERG current change (%, negative = inhibition) at 1uM” value was 14.3%.
